Data reported in PMC9911399, “Two distinct binding modes provide the RNA-binding protein RbFox with extraordinary sequence specificity”.
Positions count from the first letter of the chain named. The list shows a part of the results.

T1: RBFOX1 RRM RbFoxmut (Fox-RRM*) (Homo sapiens, UniProt Q9NWB1 109-208, R118D;E147R;N151S;E152T)
T1 sequence: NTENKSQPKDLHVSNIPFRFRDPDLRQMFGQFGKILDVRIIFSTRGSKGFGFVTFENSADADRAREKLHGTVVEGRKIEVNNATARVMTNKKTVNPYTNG

B1: GACAGUU (DNA:RNA)
RNA: GGGAGACCGGAAUUCAGAUUGUCCGACAGUUUUAAAUCCCGUCGUAGCCACCA
DNA 1: CAATCTGAATTCCGGTCTCCC
DNA 2: TGGTGGCTACGACGGGATT
B2: UAAGACA (DNA:RNA)
RNA: B1 RNA with G25U, C27A, A28G, G29A, U30C, U31A
DNA 1: CAATCTGAATTCCGGTCTCCC
DNA 2: TGGTGGCTACGACGGGATT
B3: UCCUCUU (DNA:RNA)
RNA: B1 RNA with G25U, A26C, A28U, G29C
DNA 1: CAATCTGAATTCCGGTCTCCC
DNA 2: TGGTGGCTACGACGGGATT
B4: CACCAGA (DNA:RNA)
RNA: B1 RNA with G25C, A28C, G29A, U30G, U31A
DNA 1: CAATCTGAATTCCGGTCTCCC
DNA 2: TGGTGGCTACGACGGGATT
B5: CGAGAAA (DNA:RNA)
RNA: GGGAGACCGGAAUUCAGAUUGUCCCGAGAAAUUAAAUCCCGUCGUAGCCACCA
DNA 1: CAATCTGAATTCCGGTCTCCC
DNA 2: TGGTGGCTACGACGGGATT
B6: CACACGG (DNA:RNA)
RNA: B1 RNA with G25C, G29C, U30G, U31G
DNA 1: CAATCTGAATTCCGGTCTCCC
DNA 2: TGGTGGCTACGACGGGATT
B7: GCACCUC (DNA:RNA)
RNA: B1 RNA with A26C, C27A, A28C, G29C, U31C
DNA 1: CAATCTGAATTCCGGTCTCCC
DNA 2: TGGTGGCTACGACGGGATT
B8: UAUGAAG (DNA:RNA)
RNA: B5 RNA with C25U, G26A, A27U, A31G
DNA 1: CAATCTGAATTCCGGTCTCCC
DNA 2: TGGTGGCTACGACGGGATT
B9: UGUGAUG (DNA:RNA)
RNA: B5 RNA with C25U, A27U, A30U, A31G
DNA 1: CAATCTGAATTCCGGTCTCCC
DNA 2: TGGTGGCTACGACGGGATT
B10: CUGAGCG (DNA:RNA)
RNA: B1 RNA with G25C, A26U, C27G, U30C, U31G
DNA 1: CAATCTGAATTCCGGTCTCCC
DNA 2: TGGTGGCTACGACGGGATT
B11: GGCCAGC (DNA:RNA)
RNA: B5 RNA with C25G, A27C, G28C, A30G, A31C
DNA 1: CAATCTGAATTCCGGTCTCCC
DNA 2: TGGTGGCTACGACGGGATT
B12: GCCAUCC (DNA:RNA)
RNA: B1 RNA with A26C, G29U, U30C, U31C
DNA 1: CAATCTGAATTCCGGTCTCCC
DNA 2: TGGTGGCTACGACGGGATT
B13: UAGCGUC (DNA:RNA)
RNA: B1 RNA with G25U, C27G, A28C, U31C
DNA 1: CAATCTGAATTCCGGTCTCCC
DNA 2: TGGTGGCTACGACGGGATT
B14: UAUUUGA (DNA:RNA)
RNA: B5 RNA with C25U, G26A, A27U, G28U, A29U, A30G
DNA 1: CAATCTGAATTCCGGTCTCCC
DNA 2: TGGTGGCTACGACGGGATT
B15: GUGUUUA (DNA:RNA)
RNA: B1 RNA with A26U, C27G, A28U, G29U, U31A
DNA 1: CAATCTGAATTCCGGTCTCCC
DNA 2: TGGTGGCTACGACGGGATT
B16: AUGUAAC (DNA:RNA)
RNA: B5 RNA with C25A, G26U, A27G, G28U, A31C
DNA 1: CAATCTGAATTCCGGTCTCCC
DNA 2: TGGTGGCTACGACGGGATT
B17: CUUACCU (DNA:RNA)
RNA: B1 RNA with G25C, A26U, C27U, G29C, U30C
DNA 1: CAATCTGAATTCCGGTCTCCC
DNA 2: TGGTGGCTACGACGGGATT
B18: UAACUAA (DNA:RNA)
RNA: B5 RNA with C25U, G26A, G28C, A29U
DNA 1: CAATCTGAATTCCGGTCTCCC
DNA 2: TGGTGGCTACGACGGGATT
B19: CCAGCAU (DNA:RNA)
RNA: B5 RNA with G26C, A29C, A31U
DNA 1: CAATCTGAATTCCGGTCTCCC
DNA 2: TGGTGGCTACGACGGGATT
B20: AAGCCCG (DNA:RNA)
RNA: B1 RNA with G25A, C27G, A28C, G29C, U30C, U31G
DNA 1: CAATCTGAATTCCGGTCTCCC
DNA 2: TGGTGGCTACGACGGGATT
B21: UUGCGAU (DNA:RNA)
RNA: B1 RNA with G25U, A26U, C27G, A28C, U30A
DNA 1: CAATCTGAATTCCGGTCTCCC
DNA 2: TGGTGGCTACGACGGGATT
B22: GCUUUAC (DNA:RNA)
RNA: B5 RNA with C25G, G26C, A27U, G28U, A29U, A31C
DNA 1: CAATCTGAATTCCGGTCTCCC
DNA 2: TGGTGGCTACGACGGGATT
B23: UCAACUA (DNA:RNA)
RNA: B5 RNA with C25U, G26C, G28A, A29C, A30U
DNA 1: CAATCTGAATTCCGGTCTCCC
DNA 2: TGGTGGCTACGACGGGATT
B24: UAGCGAC (DNA:RNA)
RNA: B1 RNA with G25U, C27G, A28C, U30A, U31C
DNA 1: CAATCTGAATTCCGGTCTCCC
DNA 2: TGGTGGCTACGACGGGATT
B25: GAGACAU (DNA:RNA)
RNA: B1 RNA with C27G, G29C, U30A
DNA 1: CAATCTGAATTCCGGTCTCCC
DNA 2: TGGTGGCTACGACGGGATT
B26: AAGAUAC (DNA:RNA)
RNA: B1 RNA with G25A, C27G, G29U, U30A, U31C
DNA 1: CAATCTGAATTCCGGTCTCCC
DNA 2: TGGTGGCTACGACGGGATT
B27: GCGAUUA (DNA:RNA)
RNA: B1 RNA with A26C, C27G, G29U, U31A
DNA 1: CAATCTGAATTCCGGTCTCCC
DNA 2: TGGTGGCTACGACGGGATT
B28: UCAAAAG (DNA:RNA)
RNA: B5 RNA with C25U, G26C, G28A, A31G
DNA 1: CAATCTGAATTCCGGTCTCCC
DNA 2: TGGTGGCTACGACGGGATT
B29: CAGACGG (DNA:RNA)
RNA: B1 RNA with G25C, C27G, G29C, U30G, U31G
DNA 1: CAATCTGAATTCCGGTCTCCC
DNA 2: TGGTGGCTACGACGGGATT
B30: UGCUCGC (DNA:RNA)
RNA: B5 RNA with C25U, A27C, G28U, A29C, A30G, A31C
DNA 1: CAATCTGAATTCCGGTCTCCC
DNA 2: TGGTGGCTACGACGGGATT
B31: UGAUUUA (DNA:RNA)
RNA: B5 RNA with C25U, G28U, A29U, A30U
DNA 1: CAATCTGAATTCCGGTCTCCC
DNA 2: TGGTGGCTACGACGGGATT

target: T1, RBFOX1 RRM RbFoxmut (Fox-RRM*); experiment: EMSA; HiTS-Eq, 1 nM pool, 10 min; buffer printed only for the single-RNA assays: 10 mM Tris pH 7.5, 150 mM NaCl, 3.4 mM EDTA, 0.001% NP-40, 30 C; conditions: tags: His6 N-terminal (pET28a); label: 5' 32P
Method in brief: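 Purified wild-type or mutant RbFox RRM at increasing concentrations was equilibrated with 1 nM of 5′-radiolabelled RNA carrying 7 randomized nucleotides for 10 min in 50 µL. Unbound RNA was separated by 8% native PAGE and sequenced. Relative association constants came from read-count changes of each RNA species compared with the control reaction, normalised to the cognate motif.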

Binder	binding signal
B1	0.0724 KA relative to UGCAUGU
B2	0.0672 KA relative to UGCAUGU
B3	0.0932 KA relative to UGCAUGU
B4	0.113 KA relative to UGCAUGU
B5	0.0733 KA relative to UGCAUGU
B6	0.106 KA relative to UGCAUGU
B7	0.0567 KA relative to UGCAUGU
B8	0.115 KA relative to UGCAUGU
B9	1.01 KA relative to UGCAUGU
B10	0.151 KA relative to UGCAUGU
B11	0.0622 KA relative to UGCAUGU
B12	0.0576 KA relative to UGCAUGU
B13	0.0895 KA relative to UGCAUGU
B14	0.0703 KA relative to UGCAUGU
B15	0.142 KA relative to UGCAUGU
B16	0.139 KA relative to UGCAUGU

Binder	binding signal
B17	0.0997 KA relative to UGCAUGU
B18	0.0671 KA relative to UGCAUGU
B19	0.14 KA relative to UGCAUGU
B20	0.0927 KA relative to UGCAUGU
B21	0.0679 KA relative to UGCAUGU
B22	0.0917 KA relative to UGCAUGU
B23	0.0945 KA relative to UGCAUGU
B24	0.0747 KA relative to UGCAUGU
B25	0.0505 KA relative to UGCAUGU
B26	0.0675 KA relative to UGCAUGU
B27	0.0835 KA relative to UGCAUGU
B28	0.0777 KA relative to UGCAUGU
B29	0.07 KA relative to UGCAUGU
B30	0.123 KA relative to UGCAUGU
B31	0.093 KA relative to UGCAUGU
